According to PubChem BioAssay (Tox21):
Several values for one entry are separate records, joined by “and”; a condition that tells them apart may be missing. Identical values can stand only once. Inconclusive results, whose numbers are uncertain, are shown with a selection of clear calls. For some of these results: Potencies beside an inconclusive call are fits to weak or partial responses and may not hold up. Some structures have more than one record in an assay (separate samples or runs), and their calls can disagree. Activity calls are given as the source filed them. Unless noted, calls come from the whole dose curve; as a rule, active = well fitted curve in the direction sought with a large enough effect in the repeat runs; inconclusive = weak or mixed curves; inactive = no such curve, though single readings can be large; an effect the other way counts as inactive or inconclusive.

Columns and labels:
[1] = qHTS assay to identify small molecule agonists of the hypoxia (HIF-1) signaling pathway (AID 1224846; active = well fitted activation curve with a large enough effect in the signal ratio in the repeat runs, not every such curve was filed as active; inconclusive = weak or mixed curves; the % refers to the signal ratio; note: potency is the fitted concentration of half-maximal effect); details: HRE-bla ME-180 cells, beta-lactamase ratio, 17 h; activation: at 76.8 µM (top of the series) unless noted
Summary of the method: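 In ME-180 cells bearing an HRE-bla construct, 17 h treatment with DMSO-dissolved compounds at 37C was followed by CCF4-AM loading to quantify reporter induction.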

[2] = qHTS RealTime-Glo MT Cell Viability Assay in HEK293 cells - 32 hour (AID 1224868); details: RealTime-Glo luminescence; series mostly up to 76.8 µM; note: nearly all actives have a fitted effect of over 50% in size; note: potency is the fitted concentration of half-maximal effect
Summary of the method: (§1)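 Luminescence generated by NanoLuc from substrate produced by living HEK293 cells served as the viability signal. Each value reflects the reading at its stated time point during continuous 40 h compound exposure at 37 C.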

[3] = A CellTox Green Cytotoxicity Assay to monitor cytotoxicity in HepG2 cells - 24 hour (AID 1224878); details: CellTox Green fluorescence; series mostly up to 76.8 µM; note: potency is the fitted concentration of half-maximal effect; nearly all actives have a fitted effect of over 45% in size
Summary of the method: (§2)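 Fluorescent DNA-binding dye, 600 HepG2 cells/well, 5 h preincubation then compound in DMSO; same plates read at 0–40 h, 37 C.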

[4] = A CellTox Green Cytotoxicity Assay to monitor cytotoxicity in HepG2 cells - 40 hour (AID 1224879); details: CellTox Green fluorescence; series mostly up to 76.8 µM; note: potency is the fitted concentration of half-maximal effect; nearly all actives have a fitted effect of over 40% in size
Summary of the method: as §2

[5] = qHTS RealTime-Glo MT Cell Viability Assay in HEK293 cells - 0 hour (AID 1224880); details: RealTime-Glo luminescence; series mostly up to 76.8 µM; note: potency is the fitted concentration of half-maximal effect; nearly all actives have a fitted effect of over 45% in size
Summary of the method: (§3)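 Measured as luminescence from the same continuously cultured HEK293 wells at successive time points (0, 8, 16, 24, 32, 40 h) after compound addition. Reagent present from seeding; dosing at 5 h; incubation 37 C.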

[6] = qHTS assay to identify small molecule agonists of H2AX - cell viability counter screen (AID 1224847; calls by dose curve; note: nearly all actives have a fitted effect of over 30% in size; note: potency is the fitted concentration of half-maximal effect); details: CHO-K1 viability, CellTiter-Glo luminescence, 3 h; series mostly up to 154 µM
Summary of the method: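 We seed wild-type CHO-K1 cells overnight, treat them for 3 hr at 37C with compounds in 15-concentration series, and quantify remaining viability by CellTiter-Glo luminescence.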

[7] = qHTS assay to identify small molecule antagonists of the estrogen related receptor (ERR) signaling pathway from Tox21 library (AID 1224848); details: ERR reporter cell line, luciferase antagonist mode, 18 h; series mostly up to 92.4 µM; note: potency is the fitted concentration of half-maximal effect; nearly all actives have a fitted effect of over 50% in size
Summary of the method: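 Tox21 10K compounds in DMSO tested for ERR pathway antagonism in NTP's ERR cell line; 18 h, 37 C exposure; ONE-Glo luminescence.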

[8] = qHTS RealTime-Glo MT Cell Viability Assay in HepG2 cells - 24 hour (AID 1224867); details: RealTime-Glo luminescence; series mostly up to 76.8 µM; note: potency is the fitted concentration of half-maximal effect; nearly all actives have a fitted effect of over 50% in size
Summary of the method: (§4)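 Tox21 10K library screened in qHTS format on HepG2 cells carrying RealTime-Glo reagents. Compounds were added after a 5 h preincubation, and the luminescent signal from continuous culture was measured repeatedly during 40 h treatment.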

[9] = A CellTox Green Cytotoxicity Assay to monitor cytotoxicity in HEK293 cells - 40 hour (AID 1224871); details: CellTox Green fluorescence; series mostly up to 76.8 µM; note: potency is the fitted concentration of half-maximal effect; nearly all actives have a fitted effect of over 45% in size
Summary of the method: (§5)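 Homogeneous no-lysis format: HEK293 cell suspension mixed with CellTox Green reagent, seeded, incubated 5 h at 37 C/5% CO2, then dosed by pintool with compound in DMSO.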

[10] = qHTS RealTime-Glo MT Cell Viability Assay in HEK293 cells - 16 hour (AID 1224872); details: RealTime-Glo luminescence; series mostly up to 76.8 µM; note: potency is the fitted concentration of half-maximal effect; nearly all actives have a fitted effect of over 50% in size
Summary of the method: as §1

[11] = qHTS RealTime-Glo MT Cell Viability Assay in HepG2 cells - 8 hour (AID 1224873); details: RealTime-Glo luminescence; series mostly up to 76.8 µM; note: potency is the fitted concentration of half-maximal effect; nearly all actives have a fitted effect of over 55% in size
Summary of the method: (§6)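 HepG2 cells mixed with RealTime-Glo MT reagents (NanoLuc plus cell-permeant prosubstrate) were seeded at 600 cells/well, incubated 5 h at 37 C/5% CO2, then pinned with compounds in DMSO; nonlytic luminescence tracked viability during 40 h treatment.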

[12] = qHTS RealTime-Glo MT Cell Viability Assay in HEK293 cells - 40 hour (AID 1224874); details: RealTime-Glo luminescence; max response: stronger effect = lower value
Summary of the method: as §3

[13] = A CellTox Green Cytotoxicity Assay to monitor cytotoxicity in HEK293 cells - 24 hour (AID 1224875); details: CellTox Green fluorescence; series mostly up to 76.8 µM; note: potency is the fitted concentration of half-maximal effect; nearly all actives have a fitted effect of over 45% in size
Summary of the method: as §5

[14] = A CellTox Green Cytotoxicity Assay to monitor cytotoxicity in HepG2 cells - 16 hour (AID 1224876); details: CellTox Green fluorescence; series mostly up to 35.3 µM
Summary of the method: as §2

[15] = qHTS RealTime-Glo MT Cell Viability Assay in HepG2 cells - 32 hour (AID 1224877); details: RealTime-Glo luminescence; series mostly up to 76.8 µM; note: potency is the fitted concentration of half-maximal effect; nearly all actives have a fitted effect of over 55% in size
Summary of the method: as §4

[16] = A CellTox Green Cytotoxicity Assay to monitor cytotoxicity in HEK293 cells - 32 hour (AID 1224881); details: CellTox Green fluorescence; series mostly up to 76.8 µM; note: potency is the fitted concentration of half-maximal effect; nearly all actives have a fitted effect of over 40% in size
Summary of the method: as §5

[17] = qHTS assay to identify small molecule agonists of the estrogen related receptor (ERR) signaling pathway from Tox21 library (AID 1224849; calls by dose curve; note: % is set by controls: 0 for no effect and ±100 for the full control effect; nearly all actives have a fitted effect of over 15% in size); details: ERR reporter cell line, ONE-Glo luciferase, 18 h
Summary of the method: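 Reporter cells (ERR, NTP source) treated with Tox21 10K compounds 18 h, 37 C. Readout: ONE-Glo luminescence, 30 min RT.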

[18] = qHTS RealTime-Glo MT Cell Viability Assay in HepG2 cells - 40 hour (AID 1224870); details: RealTime-Glo luminescence; series mostly up to 76.8 µM
Summary of the method: as §6
Tags give direction and shape of the fitted curve or compound fluorescence and quenching.

CC(C)(C)c1cccc(C(C)(C)C)c1O
Potency [1]: inconclusive: 60.3 µM
Potency [2]: active: 24 µM and inactive
Potency [3]: inconclusive: 53.7 µM [activator, single point]
Potency [4]: inconclusive: 53.7 µM [activator, single point]
Potency [5]: inconclusive: 42.7 µM [falling, single point]

CC1=C(CC(=O)O)c2cc(F)ccc2/C1=C\c1ccc(S(C)=O)cc1 (stereo not given)
Potency [6]: inactive

CCCCCCCCCCCCN1CCCC1=O
Potency [6]: inconclusive: 56.6 µM [cytotoxic, partial curve]
Potency [7]: inconclusive: 54.5 µM [inhibitor, single point]
Potency [8]: inconclusive: 54.9 µM [falling, partial curve, poor fit]
Potency [2]: inconclusive: 54.9 µM [cytotoxic, single point]
Potency [9]: inconclusive: 54.9 µM [activator, single point]
Potency [10]: inconclusive: 54.9 µM [cytotoxic, single point]
Potency [11]: inconclusive: 54.9 µM [falling, single point]
Potency [12]: inconclusive: 54.9 µM [cytotoxic, single point]
Potency [13]: inconclusive: 54.9 µM [activator, single point]
Potency [14]: inconclusive: 54.9 µM [activator, single point]
Potency [15]: inconclusive: 49 µM [cytotoxic, partial curve, poor fit]
Potency [3]: inconclusive: 54.9 µM [activator, single point]
Potency [4]: inconclusive: 54.9 µM [activator, single point]
Potency [16]: inconclusive: 54.9 µM [activator, single point]

C#CC1(O)CC[C@H]2[C@@H]3CCC4=CCCC[C@@H]4[C@H]3CC[C@@]21C (stereo not given in full)
Potency [6]: inconclusive: 55.2 µM [cytotoxic, single point]
Potency [8]: inconclusive: 49 µM [falling, partial curve]
Potency [11]: inconclusive: 43.6 µM [falling, partial curve]
Potency [14]: active: 34.7 µM and active: 19 µM
Potency [15]: inconclusive: 49 µM [cytotoxic, partial curve]

CCCCCCCCCCCCOCC1CO1 (stereo not given)
Potency [6]: inconclusive: 127 µM [cytotoxic, partial curve, poor fit]
activity change, positive = activation ([17]; at 92.4 µM (top of the series)): inactive: -2.77% and inactive: -4.37%
Potency [13]: inconclusive: 43.7 µM [activator, single point]
Potency [16]: inconclusive: 24.6 µM [activator, partial curve]

O=C(Nc1ccc([N+](=O)[O-])cc1Cl)c1cc(Cl)ccc1O
Potency [6]: active: 2.84 µM and inconclusive: 1.52 µM [cytotoxic, full curve]
Potency [18]: inconclusive: 3.09 µM [falling, full curve] and inconclusive: 1.17 µM [falling, full curve]
Potency [10]: inconclusive: 7.76 µM [cytotoxic, partial curve] and inconclusive: 1.04 µM [cytotoxic, full curve]
Potency [3]: active: 5.49 µM
Potency [4]: active: 4.9 µM and active: 2.33 µM
Potency [16]: inconclusive: 14.7 µM [activator, single point]

OCC(CO)(CBr)CBr
Potency [6]: inconclusive: 10.1 µM [rising, full curve, poor fit]
Potency [13]: inconclusive: 61.6 µM [activator, single point]
Potency [16]: inconclusive: 61.6 µM [activator, single point]

C[C@H]1O[C@@H](O[C@H]2[C@@H](O)C[C@H](O[C@H]3[C@@H](O)C[C@H](O[C@H]4CC[C@@]5(C)[C@H](CC[C@@H]6[C@@H]5C[C@@H](O)[C@]5(C)[C@@H](C7=CC(=O)OC7)CC[C@]65O)C4)O[C@@H]3C)O[C@@H]2C)C[C@H](O)[C@@H]1O
activity change, positive = activation ([17]; at 42.5 µM (top of the series)): active: -72.5%
Potency [10]: inconclusive: 87.2 nM [cytotoxic, full curve] and inconclusive: 86.1 nM [cytotoxic, full curve]
